The results in this text go back to patent US11618753B2 (priority 2018, dated 2023).

Where a name gives a salt, the structure may show the parent alone.

In the assay the test system is MLKL phosphorylation, HT29-L23 human colorectal adenocarcinoma cells. Kind of assay: cells. To be noted: read-out: pMLKL HCS Cell Assay (IC50, uM).
On to `CC(C)CC(=O)N1C[C@H](F)[C@H](NC(=O)c2cc(-c3cc(CN4CCC(F)(F)CC4)c4c(N)ncnn34)ccc2Cl)C1` [Example 1146, 5-{4-amino-5-[(4,4-difluoropiperidin-1-yl)methyl]pyrrolo[2,1-f][1,2,4]triazin-7-yl}-2-chloro-N-[(3R,4S)-4-fluoro-1-(3-methylbutanoyl)pyrrolidin-3-yl]benzamide], for which the IC50 stood at 0.00047 µM.
With `Nc1ncnn2c(-c3ccc(C(F)(F)F)c(C(=O)N[C@@H]4CN(C(=O)C5CC(F)(F)C5)C[C@@H]4F)c3)cc(C(F)(F)F)c12` [Example 892, 5-[4-amino-5-(trifluoromethyl)pyrrolo[2,1-f][1,2,4]triazin-7-yl]-N-[(3R,4S)-1-(3,3-difluorocyclobutanecarbonyl)-4-fluoropyrrolidin-3-yl]-2-(trifluoromethyl)benzamide], the IC50 amounted to 0.028 µM.
`COc1ncc(-c2c(-c3nnn[nH]3)cc3c(N)ncnn23)cc1C(=O)N[C@@H]1CN(C(=O)[C@@](C)(O)C(F)(F)F)C[C@@H]1F` [Example 543, 5-(4-amino-6-(1H-tetrazol-5-yl)pyrrolo[2,1-f][1,2,4]triazin-7-yl)-N-((3R,4S)-4-fluoro-1-((R)-3,3,3-trifluoro-2-hydroxy-2-methylpropanoyl)pyrrolidin-3-yl)-2-methoxynicotinamide]: the IC50 amounted to 6.25 µM.
Consider `COc1ncc(-c2cc(C(F)(F)F)c3c(N)ncnn23)cc1C(=O)NC1CN(C(=O)c2ccc(F)cc2)CC1F` (stereo not shown) [Example 27, 5-[4-amino-5-(trifluoromethyl)pyrrolo[2,1-f][1,2,4]triazin-7-yl]-N-[4-fluoro-1-(4-fluorobenzoyl)pyrrolidin-3-yl]-2-methoxypyridine-3-carboxamide], for which the half-inhibitory concentration (IC50) was found to be 0.099 µM.
Under `Cc1ncc(-c2cc(C(F)(F)F)c3c(N)ncnn23)cc1C(=O)N[C@@H]1CN(C(=O)C2CCC(F)(F)C2)C[C@@H]1CF` (stereo partly drawn) [Example 22, 5-[4-amino-5-(trifluoromethyl)pyrrolo[2,1-f][1,2,4]triazin-7-yl]-N-[(3S,4S)-1-(3,3-difluorocyclopentanecarbonyl)-4-(fluoromethyl)pyrrolidin-3-yl]-2-methylpyridine-3-carboxamide] stands 0.167 µM.
Turning to `Nc1ncnn2c(-c3ccc(Cl)c(C(=O)N[C@@H]4CN(C(=O)CC(F)(F)F)C[C@@H]4F)c3)cc(CN3CCC(C(F)(F)F)CC3)c12` [Example 1155, 5-(4-amino-5-{[4-(trifluoromethyl)piperidin-1-yl]methyl}pyrrolo[2,1-f][1,2,4]triazin-7-yl)-2-chloro-N-[(3R,4S)-4-fluoro-1-(3,3,3-trifluoropropanoyl)pyrrolidin-3-yl]benzamide], the IC50 stood at 0.011 µM.
Turning to `COc1ncc(-c2cc(C3CC3)c3c(N)ncnn23)cc1C(=O)N[C@@H]1CN(C(=O)C2CC(F)(F)C2)C[C@@H]1F` [Example 1566, 5-{4-amino-5-cyclopropylpyrrolo[2,1-f][1,2,4]triazin-7-yl}-N-[(3R,4S)-1-(3,3-difluorocyclobutanecarbonyl)-4-fluoropyrrolidin-3-yl]-2-methoxypyridine-3-carboxamide], the IC50 came to 0.0089 µM.
For `Cc1ncc(-c2cc(C(F)(F)F)c3c(N)ncnn23)cc1C(=O)NCC(O)C(O)c1ccccc1` (stereo not shown) [Example 1769, 5-(4-amino-5-(trifluoromethyl)pyrrolo[2,1-f][1,2,4]triazin-7-yl)-N-(2,3-dihydroxy-3-phenylpropyl)-2-methylnicotinamide], the IC50 is 0.0076 µM.
For the molecule `Nc1ncnn2c(-c3ccc(F)c(C(=O)NCC[C@@H](O)c4ccc(Cl)cc4)c3)cc(C(F)(F)F)c12` [Example 246, 5-[4-amino-5-(trifluoromethyl)pyrrolo[2,1-f][1,2,4]triazin-7-yl]-N-[(3R)-3-(4-chlorophenyl)-3-hydroxypropyl]-2-fluorobenzamide], the IC50 was 0.081 µM.
With `Nc1ncnn2c(-c3ccc(Cl)c(C(=O)N[C@@H]4CN(C(=O)c5cc(F)ccc5F)C[C@@H]4F)c3)cc(C(F)(F)F)c12` [Example 957, 5-[4-amino-5-(trifluoromethyl)pyrrolo[2,1-f][1,2,4]triazin-7-yl]-2-chloro-N-[(3R,4S)-1-(2,5-difluorobenzoyl)-4-fluoropyrrolidin-3-yl]benzamide] the figure was 0.013 µM; with `Cc1ncc(-c2cc(C(F)(F)F)c3c(N)ncnn23)cc1C(=O)Nc1cnn(CCc2ccccc2)c1` [Example 1787, 5-(4-amino-5-(trifluoromethyl)pyrrolo[2,1-f][1,2,4]triazin-7-yl)-2-methyl-N-(1-phenethyl-1H-pyrazol-4-yl)nicotinamide], 0.0029 µM; with `CC(C(=O)N1C[C@H](F)[C@H](NC(=O)c2cc(-c3cc(CN4CCC(C(F)(F)F)CC4)c4c(N)ncnn34)ccc2Cl)C1)C(F)(F)F` (stereo partly drawn) [Example 1162, 5-(4-amino-5-{[4-(trifluoromethyl)piperidin-1-yl]methyl}pyrrolo[2,1-f][1,2,4]triazin-7-yl)-2-chloro-N-[(3R,4S)-4-fluoro-1-(3,3,3-trifluoro-2-methylpropanoyl)pyrrolidin-3-yl]benzamide], 0.0032 µM.
As to `CCCN(CC1CC1)C(=O)c1coc(NC(=O)c2cc(-c3cc(C(F)(F)F)c4c(N)ncnn34)cnc2OC)n1` [Example 1304, 5-[4-amino-5-(trifluoromethyl)pyrrolo-[2,1-f][1,2,4]triazin-7-yl]-N-{4-[(cyclopropylmethyl)(propyl)carbamoyl]-1,3-oxazol-2-yl}-2-methoxypyridine-3-carboxamide], the IC50 turned out to be 0.383 µM.
As to `Nc1ncnn2c(-c3ccc(Cl)c(C(=O)N[C@@H]4CN(C(=O)c5ccccc5F)C[C@@H]4F)c3)cc(C(F)(F)F)c12` [Example 932, 5-[4-amino-5-(trifluoromethyl)pyrrolo[2,1-f][1,2,4]triazin-7-yl]-2-chloro-N-[(3R,4S)-4-fluoro-1-(2-fluorobenzoyl)pyrrolidin-3-yl]benzamide], the IC50 amounted to 0.007 µM.
Regarding `Cc1ncc(-c2cc(C(F)(F)F)c3c(N)ncnn23)cc1C(=O)Nc1cn(C(C)c2ccc(F)cc2)cn1` (stereo not shown) [Example 1773, 5-(4-amino-5-(trifluoromethyl)pyrrolo[2,1-f][1,2,4]triazin-7-yl)-N-(1-(1-(4-fluorophenyl)ethyl)-1H-imidazol-4-yl)-2-methylnicotinamide], the half-inhibitory concentration (IC50) is 0.00085 µM.
As to `CCc1ccc(-c2cc(C(F)(F)F)c3c(N)ncnn23)cc1C(=O)N[C@@H]1CN(C(=O)c2ccccc2F)C[C@@H]1F` [Example 982, 5-[4-amino-5-(trifluoromethyl)pyrrolo[2,1-f][1,2,4]triazin-7-yl]-2-ethyl-N-[(3R,4S)-4-fluoro-1-(2-fluorobenzoyl)pyrrolidin-3-yl]benzamide], the IC50 is 0.008 µM.
Turning to `Nc1ncnn2c(-c3cc(F)c(Cl)c(C(=O)N[C@@H]4CN(C(=O)c5ccccc5F)C[C@@H]4F)c3)cc(C(F)(F)F)c12` [Example 642, 5-[4-amino-5-(trifluoromethyl)pyrrolo[2,1-f][1,2,4]triazin-7-yl]-2-chloro-3-fluoro-N-[(3R,4S)-4-fluoro-1-(2-fluorobenzoyl)pyrrolidin-3-yl]benzamide], the IC50 amounted to 0.0031 µM.
Take `Cc1nc(C)c(-c2cc(C(F)(F)F)c3c(N)ncnn23)cc1C(=O)N[C@@H]1CN(C(=O)c2ccccc2Cl)C[C@@H]1F` [Example 1186, 5-[4-amino-5-(trifluoromethyl)pyrrolo[2,1-f][1,2,4]triazin-7-yl]-N-[(3R,4S)-1-(2-chlorobenzoyl)-4-fluoropyrrolidin-3-yl]-2,6-dimethylpyridine-3-carboxamide]: the concentration for half-maximal inhibition (IC50) amounted to 0.036 µM.
For the molecule `Cc1ncc(-c2cc(C(F)(F)F)c3c(N)ncnn23)cc1C(=O)N[C@@H]1CN(C(=O)C2(O)CCCC2)C[C@@H]1F` [Example 362, 5-[4-amino-5-(trifluoromethyl)pyrrolo [2,1-f][1,2,4]triazin-7-yl]-N-[(3R,4S)-4-fluoro-1-(1-hydroxycyclopentane-carbonyl)pyrrolidin-3-yl]-2-methyl-pyridine-3-carboxamide, TFA], the IC50 was 0.031 µM.
With `Nc1ncnn2c(-c3ccc(Cl)c(C(=O)N[C@@H]4CN(C(=O)CC(O)(C(F)(F)F)C(F)(F)F)C[C@@H]4F)c3)cc(CN3CCC(C(F)(F)F)CC3)c12` [Example 1156] the figure was 0.003 µM.
Under `COc1ncc(-c2cc(CN3CCC(F)(F)CC3)c3c(N)ncnn23)cc1C(=O)N[C@@H]1CN(C(=O)OCCC(F)(F)F)C[C@@H]1F` [Example 1503, 3,3,3-trifluoropropyl (3R,4S)-3-(5-{4-amino-5-[(4,4-difluoropiperidin-1-yl)methyl]pyrrolo[2,1-f][1,2,4]triazin-7-yl}-2-methoxypyridine-3-amido)-4-fluoropyrrolidine-1-carboxylate] stands 0.0029 µM; under `COc1ncc(-c2cc(Cn3cnc(-c4ccccc4)c3)c3c(N)ncnn23)cc1C(=O)N[C@@H]1CN(C(=O)C2CC(F)(F)C2)C[C@@H]1F` [Example 1712, 5-(4-amino-5-((4-phenyl-1H-imidazol-1-yl)methyl)pyrrolo[2,1-f][1,2,4]triazin-7-yl)-N-((3R,4S)-1-(3,3-difluorocyclobutane-1-carbonyl)-4-fluoropyrrolidin-3-yl)-2-methoxynicotinamide], 0.075 µM; under `Nc1ncnn2c(-c3cncc(C(=O)NCCC(O)c4ccc(F)cc4)c3)cc(C(F)(F)F)c12` (stereo not shown) [Example 18, 5-[4-amino-5-(trifluoromethyl)pyrrolo[2,1-f][1,2,4]triazin-7-yl]-N-[3-(4-fluorophenyl)-3-hydroxypropyl]pyridine-3-carboxamide], 0.024 µM.
With `Nc1ncnn2c(-c3cccc(C(=O)N[C@@H]4CN(C(=O)C5CCC5)C[C@@H]4F)c3)cc(CN3CC(F)(F)C3)c12` [Example 1168, 3-{4-amino-5-[(3,3-difluoroazetidin-1-yl)methyl]pyrrolo[2,1-f][1,2,4]triazin-7-yl}-N-[(3R,4S)-1-cyclobutanecarbonyl-4-fluoropyrrolidin-3-yl]benzamide] the figure was 0.00037 µM; with `COc1ncc(-c2cc(C(F)(F)F)c3c(N)ncnn23)cc1C(=O)N[C@@H]1CN(S(=O)(=O)C2CCS(=O)(=O)C2)C[C@@H]1F` (stereo partly drawn) [Example 1481, 5-[4-amino-5-(trifluoromethyl)pyrrolo[2,1-f][1,2,4]triazin-7-yl]-N-[(3R,4S)-1-[(1,1-dioxidotetrahydrothiophen-3-yl)sulfonyl]-4-fluoropyrrolidin-3-yl]-2-methoxypyridine-3-carboxamide], 0.369 µM.
